Experimental data reported in the supplement of paper PMC8728848.
This is one part of the list.

Experiments:
Test in all cases: glycan array binding signal (z-score within array); higher = stronger binding
Details in all cases: glycan notation: IUPAC condensed, linker removed
[1] = biological target: Neu5Gc(a2-3)Gal(b1-4)GlcNAc(b1-3)Gal(b1-4)GlcNAc(b1-2)Man(a1-3)[Neu5Gc(a2-3)Gal(b1-4)GlcNAc(b1-3)Gal(b1-4)GlcNAc(b1-2)Man(a1-6)]Man(b1-4)GlcNAc(b1-4)GlcNAc
Method in brief: (§1)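 The Consortium for Functional Glycomics database supplied 3228 glycan arrays, of which those lacking an available protein sequence were dropped. The binding signal, a within-array Z-score, was averaged across arrays of the same protein sequence and across linkers. Negative scores can be read as non-binding.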

[2] = biological target: Neu5Gc(a2-3)Gal(b1-4)[Fuc(a1-3)]GlcNAc
Method in brief: as §1

[3] = biological target: Neu5Gc(a2-3)Gal(b1-4)[Fuc(a1-4)]GlcNAc
Method in brief: as §1

[4] = biological target: Neu5Gc(a2-6)Gal(b1-4)GlcNAc
Method in brief: as §1

Neu5Gc(a2-6)GalNAc = biological target: Neu5Gc(a2-6)GalNAc
Method in brief: as §1

[5] = biological target: Neu5Gc(a2-8)Neu5Ac(a2-3)Gal(b1-4)GlcNAc
Method in brief: as §1

[6] = biological target: Neu5Gc(a2-8)Neu5Gc(a2-3)Gal(b1-4)GlcNAc
Method in brief: as §1

[7] = biological target: Neu5Gc(a2-8)Neu5Gc(a2-3)Gal(b1-4)GlcNAc(b1-3)Gal(b1-4)GlcNAc
Method in brief: as §1

[8] = biological target: Neu5Gc(a2-8)Neu5Gc(a2-6)Gal(b1-4)GlcNAc
Method in brief: as §1

[9] = biological target: Neu5Gc(b2-6)Gal(b1-4)GlcNAc
Method in brief: as §1

B1: Gal 2 (Homo sapiens), P05162 (protein)
chain: MTGELEVKNMDMKPGSTLKITGSIADGTDGFVINLGQGTDKLNLHFNPRFSESTIVCNSLDGSNWGQEQREDHLCFSPGSEVKFTVTFESDKFKVKLPDGHELTFPNRLGHSHLSYLSVRGGFNMSSFKLKE
- glycan array binding signal (z-score) [1]: -0.184
- glycan array binding signal (z-score) [2]: -0.212
- glycan array binding signal (z-score) [3]: -0.423
- glycan array binding signal (z-score) [4]: -0.227
- glycan array binding signal (z-score) (Neu5Gc(a2-6)GalNAc): -0.263
- glycan array binding signal (z-score) [5]: -0.21
- glycan array binding signal (z-score) [6]: -0.251
- glycan array binding signal (z-score) [7]: -0.347
- glycan array binding signal (z-score) [8]: -0.115
- glycan array binding signal (z-score) [9]: -0.217
